Data taken from paper PMC4336329 (PLoS ONE, 2015).
In all, about 310,000 compounds went through this assay and about 14,000 (4.5%) showed an effect of 50% or more. Effects have a minus sign here. Some of the results follow.

Target: human ether-à-go-go-related gene (hERG) potassium channel (human, UniProt Q12809)
Test: primary screen, population patch clamp on CHO cells stably expressing hERG
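Further: peak tail current of the secondary pulse compared with the same well before compound.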

Chain of human ether-à-go-go-related gene (hERG) potassium channel (Q12809 whole entry, looked up): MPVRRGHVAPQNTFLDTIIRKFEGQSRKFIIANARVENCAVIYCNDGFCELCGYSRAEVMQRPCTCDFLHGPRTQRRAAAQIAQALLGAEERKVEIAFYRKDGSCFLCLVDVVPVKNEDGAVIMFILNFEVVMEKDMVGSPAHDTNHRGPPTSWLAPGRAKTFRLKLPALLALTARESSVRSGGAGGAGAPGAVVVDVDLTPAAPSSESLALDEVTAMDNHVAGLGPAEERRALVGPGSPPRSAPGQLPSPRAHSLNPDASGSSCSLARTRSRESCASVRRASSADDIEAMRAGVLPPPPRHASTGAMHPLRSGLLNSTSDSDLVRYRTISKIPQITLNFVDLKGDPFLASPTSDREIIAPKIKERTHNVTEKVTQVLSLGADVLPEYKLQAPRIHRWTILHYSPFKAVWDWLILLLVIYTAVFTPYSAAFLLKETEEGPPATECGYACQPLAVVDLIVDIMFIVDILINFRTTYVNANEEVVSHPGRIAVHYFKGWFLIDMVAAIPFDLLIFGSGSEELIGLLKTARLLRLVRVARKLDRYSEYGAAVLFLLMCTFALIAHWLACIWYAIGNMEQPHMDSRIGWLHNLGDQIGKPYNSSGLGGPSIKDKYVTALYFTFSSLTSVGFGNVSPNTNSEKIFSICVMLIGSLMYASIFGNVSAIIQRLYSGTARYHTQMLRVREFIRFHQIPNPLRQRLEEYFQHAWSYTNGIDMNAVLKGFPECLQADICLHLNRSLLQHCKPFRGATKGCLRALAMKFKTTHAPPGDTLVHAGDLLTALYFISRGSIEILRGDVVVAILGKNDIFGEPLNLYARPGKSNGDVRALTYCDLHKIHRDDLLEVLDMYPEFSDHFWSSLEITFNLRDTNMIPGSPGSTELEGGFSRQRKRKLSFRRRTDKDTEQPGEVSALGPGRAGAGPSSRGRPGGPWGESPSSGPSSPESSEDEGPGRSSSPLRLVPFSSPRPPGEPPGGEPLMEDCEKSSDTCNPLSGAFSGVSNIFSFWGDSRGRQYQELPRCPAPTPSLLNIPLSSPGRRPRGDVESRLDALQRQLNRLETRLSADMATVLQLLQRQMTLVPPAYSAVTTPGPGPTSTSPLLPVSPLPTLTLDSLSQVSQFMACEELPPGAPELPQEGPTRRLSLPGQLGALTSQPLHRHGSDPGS

Compound	hERG current change (%, negative = inhibition) at 10uM [%]
COc1ccc(C2NC(=O)NC(C)=C2C(=O)Nc2cccc(C)c2C)cc1 (stereo not drawn)	-7.54
O=C(Cc1ccc(Cl)cc1)NN1C(=O)c2ccccc2C1=O	4.56
Cc1cccc(NC(=O)Cn2c(=O)oc3ccccc32)c1C	14.8
Cn1cc(CN(Cc2ccccn2)C[C@@H]2CCC(=O)N2)c(-c2ccccc2F)n1	6.03
CC(C)(C)N1C(=O)c2ccc(C(=O)Nc3ccc(C(=O)O)cc3)cc2C1=O	14.5
COc1ccc(C(CC(=O)N2CCCC(C)C2)c2c(OC)cc(OC)c3c(-c4ccccc4)cc(=O)oc23)cc1 (stereo not drawn)	8.57
COc1ccc(-c2cc3n(n2)CCc2nc4ccccc4n2-3)cc1	4.54
CC(C)Cn1c(N)c(C(=O)COC(=O)c2ccncc2)c(=O)n(C)c1=O	-0.546
Cc1nc(SCC(=O)Nc2c(C)n(C)n(-c3ccccc3)c2=O)nc(C)c1C	3.09
COc1ccc(C(=O)Nc2ccc3c(c2)nc(CN2CCN(C(C)=O)CC2)n3C)cc1	-0.777
CC(c1ccon1)N(C)Cc1cn(C)nc1-c1ccc2c(c1)OCCO2 (stereo not drawn)	13.5
C=CCCCCCCCCC(=O)N1CCN(c2cc3c(cc2F)c(=O)c(C(=O)O)cn3CC)CC1	5.07
CC(=NCc1cccnc1)c1c(O)n(-c2ccccc2C)c(=O)[nH]c1=O	0.273
CCN(CC)C(=O)Cn1cc(/C=C(\C#N)C(=O)N2CCN(c3ccccc3)CC2)c2ccccc21	-13
CC1(c2ccc3ccccc3c2)NC(=O)NC1=O (stereo not drawn)	13.3
Cc1cc(Br)c(OCc2ccc(C(=O)N/N=C3\CC(=O)CC(C)(C)C3)cc2)c(Br)c1	5.31
O=C1CC(NS(=O)(=O)c2cccnc2)CN1c1ccc(F)cc1 (stereo not drawn)	0.051
Cc1nc2ccc(Cc3ccc4nc(C)[nH]c4c3)cc2[nH]1	3.33
O=C(O)c1ccccc1SCc1cn2cc(Br)ccc2n1	15.6
O=C(NCCN=C1NS(=O)(=O)c2ccccc21)c1ccc(S(=O)(=O)N2CCOCC2)cc1	-7.36
CCOC(=O)N1CCN(CCC(=O)Nc2ccc(F)c(F)c2)CC1	0.204
COc1ccc2cc(CN(CCc3ccccc3)Cc3nnnn3Cc3ccco3)c(=O)[nH]c2c1	-29.7
NC(=O)c1ccc(NC(=O)c2cnc3ccccc3n2)cc1	5.85
COc1ccc(-n2c(C)nc3cc(C(=O)NCc4ccco4)ccc32)cc1	-22.9
N#CC(C#N)=Cc1cn(-c2ncc(C(F)(F)F)cc2Cl)c2ccccc12	6.8
CCCOc1cc(C)c(S(=O)(=O)n2nnc3ccccc32)cc1C	6.53
O=C(c1cccc(S(=O)(=O)N2CCCC2)c1)c1nnc(-c2ccncc2)o1	5.42

Compound	hERG current change (%, negative = inhibition) at 10uM [%]
O=C(NC(=S)N1CCCc2ccccc21)c1ccccc1	14.7
Cc1ccccc1NCc1ccc([N+](=O)[O-])s1	-38.8
CCC(=O)Nc1cccc(NC(=O)CSc2nnc(-c3ccc(NS(C)(=O)=O)cc3)n2C)c1	0.13
O=C(CSc1nc2ccccc2o1)NC(=O)NCc1ccco1	-18.2
CSc1ccccc1NC(=O)c1c(C)noc1C	-2.59
O=C(NN1C(=O)/C(=C/C=C/c2ccco2)SC1=S)c1ccccc1O	1.86
COc1ccc(/C=C/C(=O)OC2CCCN(C)C2)cc1.Cl (stereo not drawn)	-8.09
O=C(/C=C/N1CCOCC1)c1ccc(-c2ccccc2)cc1	-33.9
CCOc1cc(NC(=S)NCCCN2CCOCC2)c(OCC)cc1NC(=O)c1ccccc1C	-12.1
CC(C)(C)c1ccc(C(=O)NCCn2c(N)c(C#N)c3nc4ccccc4nc32)cc1	4.74
CCC(CC)COC(=O)C1=C(C)NC(=O)NC1c1cc(OC)ccc1OC (stereo not drawn)	4.85
COc1ccc(/C=N\NC(=O)c2ccccc2[N+](=O)[O-])cc1COc1c(F)c(F)c(F)c(F)c1F	8.06
COc1ccc(NC(=O)C(=O)NNC(=O)c2cccs2)cc1	17.9
O=C(COC(=O)c1cc(S(=O)(=O)N2CCOCC2)ccc1F)NCc1ccco1	15
CC12CN3CN(C1)CC(c1ccccc1)(C3)C2=O	12.7
COc1ccccc1OCCN1C(=O)S/C(=C\c2ccco2)C1=O	-7.56
Cc1cnc(C(=O)N2CCCC(C(=O)c3ccc(Cl)cc3C)C2)cn1 (stereo not drawn)	-4.61
N/C(=N\OC(=O)c1ccc2ccccc2c1)c1ccccc1Cl	18.2
NS(=O)(=O)c1ccc(CCNC(=O)CC(c2ccccc2)c2ccccc2)cc1	-33.3
O=C(NCc1cccs1)C1CC(=O)N(c2ccc(F)cc2)C1 (stereo not drawn)	-17.1
C=C(C)[C@@H]1CC=C(C(=O)O)CC1	-3.03
COc1ccc(NC(=O)CN2CCCC2c2cccs2)cc1S(=O)(=O)N1CCCCC1 (stereo not drawn)	-32.3
CCc1nnc(NC(=O)CN2CCN(Cc3ccc(C)cc3)CC2)s1	-57.6
NC(=O)c1ncc(C(F)(F)F)cc1Oc1ccc(C(F)(F)F)cc1	24.9
O=C(NCc1cccs1)Nc1ccc(Cl)cc1	-21.2
CC1(C(=O)N2CCC(CC3CC(c4ccc(Cl)cc4)=NO3)(C(=O)NCC3CCCCC3)CC2)CC1 (stereo not drawn)	-40.8
Cc1ccc(-c2nnc(SCc3nc(N)nc(Nc4ccccc4C)n3)n2N)cc1	-20.3
